Holding throughout (conditions): 20 mM HEPES pH 7.9, 100 mM NaCl, 1 mM DTT, 0.2 mg/mL BSA, 0.02% Triton X-100, 2% milk, 0.4 mg/mL salmon testes DNA; 1 h; temperature not stated; high values mean tight binding; double strand, one strand shown; sequences stand for … in GCCTAGCAC…GTGCTAGGTCTTGATTCGCTTGACGCTGCTG
The target in assay [1] is PU.1 (IVT) (UniProt P17947). In words: protein-binding microarray (PBM).
The target in assay [2] is T1, FLI1 (endogenous, THP-1 nuclear extract) (UniProt Q01543).
T1 sequence: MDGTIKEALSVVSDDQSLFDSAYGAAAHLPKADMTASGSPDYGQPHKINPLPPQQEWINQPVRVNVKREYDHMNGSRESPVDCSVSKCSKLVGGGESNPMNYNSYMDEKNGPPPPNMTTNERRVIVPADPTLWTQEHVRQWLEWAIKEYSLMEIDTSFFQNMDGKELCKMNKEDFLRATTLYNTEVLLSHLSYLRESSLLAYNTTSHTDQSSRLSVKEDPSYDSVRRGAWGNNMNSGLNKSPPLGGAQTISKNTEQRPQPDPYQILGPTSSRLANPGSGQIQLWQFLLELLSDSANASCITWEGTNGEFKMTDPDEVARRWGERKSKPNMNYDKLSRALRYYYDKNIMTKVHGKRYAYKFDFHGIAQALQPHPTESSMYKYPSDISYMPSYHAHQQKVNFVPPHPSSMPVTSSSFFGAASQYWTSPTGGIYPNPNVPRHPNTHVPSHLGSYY
In words: nuclear extract protein-binding microarray (nextPBM).

For assay [3], the system named is PU.1 (endogenous, THP-1 nuclear extract) + IRF8 (endogenous, THP-1 nuclear extract). Described as above.

Experimental findings from article PMC6451091 are described below.

This is one part of the list. For part of these data: At the low end of the ranking, values are background and their order means little. For part of these data: Measured with an extract: partners may take part in the binding.

For the sequence TGAAACATGAAGTGAAACCA, the binding signal in assay [1] is 0.433 z-score; in assay [2] it was 0.0599 z-score; in assay [3], 29.4 z-score.
Regarding GTGTCAAGGAACTGAAACTT, the values for the binding signal in assay [1], in assay [2] and in assay [3] were 0.646 z-score, 0.432 z-score and 11.2 z-score, respectively.
GAAAGGAGGAACTGAAACCA: the binding signal in assay [1] turned out to be 4.12 z-score; in assay [2], 2.69 z-score; in assay [3], 37.7 z-score.
In the same order, the values of TCAAAGCAGAAGTGAAACTT are 3.35 z-score, 1.73 z-score and 46.8 z-score.
TGGCAGAGGATGTGAAACTA: the values for the binding signal in assay [1], in assay [2] and in assay [3] were 0.483 z-score, 1.72 z-score and 33.9 z-score, respectively.
In the case of GAAAAGGGGAAATGAAACTA, the figures for the binding signal in assay [1], in assay [2] and in assay [3] were 5.44 z-score, 3.14 z-score and 60.4 z-score, respectively.
The corresponding values for TGAGAGGAGAAGTGAAACCG are 1.02 z-score, 1.2 z-score and 25.7 z-score.
In the same order, the values of TGAAACAGGACGTGAAACCA are 0.207 z-score, 1.56 z-score and 5.04 z-score.
In the same order, the values of AAGGGGAGGAAGTGAAACTC are 3.36 z-score, 3.26 z-score and 37.9 z-score.
Turning to ATGGCAGGGAACTGAAACTC, the binding signal worked out at 0.668 z-score in assay [1], 0.466 z-score in assay [2] and 10.6 z-score in assay [3].
The corresponding values for AAAACAAGGAAATGAAAGTA are 2.07 z-score, 1.84 z-score and 12.7 z-score.
In the same order, the values of CAAAAGAAGAAGTGAAACTT are 3.75 z-score, 1.94 z-score and 43.5 z-score.
In the same order, the values of AAAAAAAGGAAATTAAAGTA are 3.65 z-score, 2.1 z-score and -0.154 z-score.
Regarding TAAAAGGAGAAGTGAAACTC, the binding signal in assay [1] was determined as 5.6 z-score; in assay [2] it was 3.73 z-score; in assay [3], 62.4 z-score.
As to CTGGCAGGGAACGGAAACTC, the binding signal in assay [1] was 0.518 z-score; in assay [2], 3.59 z-score; in assay [3], 2.69 z-score.
The corresponding values for TGGCAGAGGAAGTGAAACTT are 3.93 z-score, 3.55 z-score and 38.1 z-score.
In the same order, the values of TGAGAGGAGAAGCGAAACCT are 0.358 z-score, 0.324 z-score and 28.2 z-score.
For the sequence GCTTTAGGGAACTGAAAGCG, the binding signal in assay [1] is 2.82 z-score; in assay [2], 0.855 z-score; in assay [3], 2.9 z-score.
The corresponding values for TGGCAGAGGACGTGAAACTA are -0.354 z-score, 0.336 z-score and 8.24 z-score.
The corresponding values for GATAATAGGAACTGAAAGCT are 2.28 z-score, 0.871 z-score and 2.59 z-score.
In the case of TAAAGGAGTAACTGAAACCA, the binding signal was -0.147 z-score in assay [1], -0.198 z-score in assay [2] and 7.84 z-score in assay [3].
In the same order, the values of GAAGAAGGGAAGTGAAAGAG are 3.12 z-score, 1.9 z-score and 2.41 z-score.
In the same order, the values of AAAAAAAGGAAATGAATGTA are 3.56 z-score, 2.3 z-score and 0.263 z-score.
The corresponding values for TACAGGAGGAACTGAAACCA are 2.07 z-score, 1.29 z-score and 30 z-score.
Take TTACTGAGGAACTGAAACTC: the binding signal is 1.82 z-score in assay [1], 0.861 z-score in assay [2] and 18.8 z-score in assay [3].
Consider CTGGCAGGGAACTGAAACTT, for which the binding signal in assay [1] stood at 0.701 z-score; in assay [2], 0.157 z-score; in assay [3], 10.4 z-score.
In the same order, the values of TGGAACAGGAAGTGAAACCA are 5.22 z-score, 5.64 z-score and 74 z-score.
As to GTATCAAGGAACTGAAACTT, the binding signal turned out to be 1.14 z-score in assay [1], 0.425 z-score in assay [2] and 12.2 z-score in assay [3].
Consider TAAAGGAGCAACTGAAACCA, for which the results for the binding signal in assay [1], in assay [2] and in assay [3] were -0.153 z-score, -1.01 z-score and 7.24 z-score, respectively.
AAAAAAATGAAATGAAAGTA: the binding signal in assay [1] is 0.217 z-score; in assay [2], -0.0929 z-score; in assay [3] it was 7.64 z-score.
On to CTGCCAGGGAACTGAAACTC, for which the binding signal in assay [1] was 0.185 z-score; in assay [2] it was -0.0882 z-score; in assay [3], 10.3 z-score.
Regarding TATAGGAGGAACTGAAACCA, the binding signal in assay [1] worked out at 2.42 z-score; in assay [2], 1.81 z-score; in assay [3] it was 29.6 z-score.
The corresponding values for AAATAAAGGAAATGAAAGTA are 1.79 z-score, 2.28 z-score and 14.1 z-score.
The corresponding values for TAGATGAGGAAGTGAAACTC are 5.47 z-score, 4.06 z-score and 58.2 z-score.
In the case of AGAAAGAGGAAGAGAAACTG, the values for the binding signal in assay [1], in assay [2] and in assay [3] were 5.02 z-score, 2.64 z-score and 12.6 z-score, respectively.
For the sequence AAAAAAAGGAAAGGAAAGTA, the values for the binding signal in assay [1], in assay [2] and in assay [3] were 1.27 z-score, 1.32 z-score and -0.0838 z-score, respectively.
In the same order, the values of AAAGAAAGGAAATGAAAGTA are 0.624 z-score, 2.23 z-score and 10.4 z-score.
GGCGGGAGGAAGTGAAACTT: the binding signal in assay [1] was found to be 3.37 z-score; in assay [2], 3.44 z-score; in assay [3], 47.7 z-score.
With GAAAAGAGGAACCGAAACTT, the binding signal in assay [1] turned out to be 6.08 z-score; in assay [2], 3.82 z-score; in assay [3] it was 82.1 z-score.
For the sequence CTGGCAGGGAACAGAAACTC, the binding signal came to 0.453 z-score in assay [1], 0.0959 z-score in assay [2] and 5.14 z-score in assay [3].
Turning to TGAAACAGGAAGTGAATCCA, the binding signal in assay [1] came out at 6.9 z-score; in assay [2], 5.51 z-score; in assay [3], 7.11 z-score.
Consider AAAAAGGGGAAGAGAAACTC, for which the binding signal in assay [1] is 5.35 z-score; in assay [2], 2.55 z-score; in assay [3], 9.8 z-score.
In the same order, the values of TATAAAGGGAAGTGAAAATG are 4.52 z-score, 2.17 z-score and 3.77 z-score.
Turning to TTGCCAGGGAAGTGAAAGCA, the figures for the binding signal in assay [1], in assay [2] and in assay [3] were 1.07 z-score, 1.02 z-score and 6.01 z-score, respectively.
In the same order, the values of ATTTTGAAGAACTGAAACTG are 0.566 z-score, 0.0712 z-score and 17.2 z-score.
The corresponding values for TGAGATGAGAAGTGAAACCT are 0.545 z-score, 0.12 z-score and 26 z-score.
In the same order, the values of GGAAAGAGGAAGGGAAACTG are 3.89 z-score, 2.65 z-score and 9.16 z-score.
On to AGAAAGAGGAAGCGAAACTC, for which the figures for the binding signal in assay [1], in assay [2] and in assay [3] were 5.78 z-score, 3.95 z-score and 72.3 z-score, respectively.
With CTCGCAGGGAACTGAAACTC, the binding signal was 0.811 z-score in assay [1], -0.165 z-score in assay [2] and 12.1 z-score in assay [3].
The corresponding values for CGAAAAGGGAAGTGAAACTC are 6.24 z-score, 3.77 z-score and 72.2 z-score.
The corresponding values for TGGTAGAGGAAGTGAAACTA are 4.29 z-score, 3.77 z-score and 70.4 z-score.
Consider GATAGCAGGAAGTGAAACTA, for which the binding signal in assay [1] came out at 3.14 z-score; in assay [2], 4.45 z-score; in assay [3] it was 57.5 z-score.
Turning to TGAAACAGGAACTGAAACCA, the binding signal in assay [1] was found to be 4.03 z-score; in assay [2], 3.36 z-score; in assay [3], 61.4 z-score.
The corresponding values for TGGCAGAGGAATTGAAACTA are 0.131 z-score, 0.102 z-score and 15 z-score.
In the same order, the values of GACATGAGGAAGTGAAACTA are 4.72 z-score, 3.11 z-score and 73.5 z-score.
Consider TGGCAGAGGAAGTGAGACTA, for which the binding signal in assay [1] was 3.33 z-score; in assay [2], 2.67 z-score; in assay [3], 2.88 z-score.
As to TGAAGGAGGAACTGAAACCA, the binding signal in assay [1] was found to be 3.35 z-score; in assay [2] it was 1.93 z-score; in assay [3], 39.7 z-score.
In the same order, the values of CTGGGTGGGAAGTGAAAGTA are 2.15 z-score, 1.26 z-score and 21.4 z-score.
The corresponding values for TGCAACAGGAAGTGAAACCA are 4.15 z-score, 5.42 z-score and 56.9 z-score.
With AAAAAAAGGAAATGAAAGTT, the binding signal in assay [1] was 3.78 z-score; in assay [2] it was 2.83 z-score; in assay [3] it was 7.83 z-score.
